# Where “and” joins values, the source holds several entries; their conditions need not be identical. Equal values may be shown once. Hit rate of the full screen: of about 110,000 compounds, about 230 (0.21%) showed an effect of 50% or more. Some of the results follow.
# Molecular target: DPAP1 (Plasmodium falciparum, UniProt Q8IIJ9)
# Experiment: primary screen, percent inhibition; read by cleavage of a fluorogenic dipeptide substrate; higher = more effect of the substance
# Set-up: species or system P. falciparum D10 trophozoite lysates; single well
# 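Note: 30 min substrate incubation versus DMSO and 10 µM JCP410 controls.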
# Chain of DPAP1 (Q8IIJ9 whole entry, looked up): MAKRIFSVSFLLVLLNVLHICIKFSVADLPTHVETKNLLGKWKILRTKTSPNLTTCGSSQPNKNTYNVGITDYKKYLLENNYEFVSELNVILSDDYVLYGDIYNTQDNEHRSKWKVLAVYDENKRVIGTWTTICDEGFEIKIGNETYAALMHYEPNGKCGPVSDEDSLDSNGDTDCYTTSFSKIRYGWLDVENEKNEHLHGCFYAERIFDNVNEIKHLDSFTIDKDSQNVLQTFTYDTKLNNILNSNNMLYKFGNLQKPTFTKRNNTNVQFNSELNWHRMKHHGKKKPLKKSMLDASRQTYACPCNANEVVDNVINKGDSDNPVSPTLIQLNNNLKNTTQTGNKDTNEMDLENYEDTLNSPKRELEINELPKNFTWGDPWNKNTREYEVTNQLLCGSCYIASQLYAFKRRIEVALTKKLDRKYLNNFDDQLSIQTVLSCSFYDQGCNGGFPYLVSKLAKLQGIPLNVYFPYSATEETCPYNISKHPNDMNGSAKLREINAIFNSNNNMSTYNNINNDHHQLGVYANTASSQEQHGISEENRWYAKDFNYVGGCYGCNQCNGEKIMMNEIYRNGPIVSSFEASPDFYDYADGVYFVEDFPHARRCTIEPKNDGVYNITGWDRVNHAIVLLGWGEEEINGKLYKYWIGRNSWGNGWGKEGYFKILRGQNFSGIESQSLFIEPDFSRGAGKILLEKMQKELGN
row,SMILES,% Inhibition @ 10 uM
1,Cc1ccccc1OCC(=O)Nc1cc(Cl)c(O)c(Cl)c1,1.4%
2,CSc1nc(SC)c2cnn(-c3ccccc3)c2n1,-0.0272%
3,O=C(NCCc1ccccc1)c1ccc(CNS(=O)(=O)c2cccc(Cl)c2)cc1,1.17%
4,CN1CC[C@@]2(O)CCCC[C@@H]2[C@H]1c1cccnc1,-0.261%
5,Cc1ccc(C)c(S(=O)(=O)NC(C)C(=O)Nc2ccc(Cl)c(Cl)c2)c1 (centres unmarked),5.61%
6,Cc1c(Cl)cccc1N(CC(=O)N1CCOCC1)S(=O)(=O)c1ccccc1,-0.46%
7,COc1cc(OC)c(C2C(C#N)=C(N)Oc3[nH]nc(C)c32)cc1OC (centres unmarked),0.687%
8,CN(C)CCCOc1nc2c(c(=O)n(C)c(=O)n2C)n1C,-10% and -3.77%
9,O=C(C1Cc2ccccc2CN1S(=O)(=O)c1cccs1)N1CCCCC1 (centres unmarked),6.57%
10,CC1(C)CC(=O)c2c(sc3ccccc23)O1,-4.43%
11,CCCCN(Cc1ccccc1)Cc1cc(Cl)cc(Cl)c1O,4.8%
12,CCn1cc(/C=C(\NC(=O)c2ccccc2OC)C(=O)NCCCn2ccnc2)c2ccccc21,-5.36%
13,COc1ccc(Cc2c(O)n3c(nc2=O)SCCC3)cc1,2.51%
14,COc1ccccc1/C=c1\sc2nc(-c3ccccc3Br)nn2c1=O,-4.85%
15,COc1ccc(Oc2nc3ccccc3s2)cc1,4.06%
16,COc1cc(/C=C2\SC(=O)NC2=O)cc(OC)c1OC,7.62%
17,Cc1cccc(NC(=O)c2cc3ccc4cccnc4c3[nH]2)n1,-0.528%
18,COc1c(/C=N/NC(N)=S)c(C)nn1-c1ccccc1,-1.1%
19,CC(Oc1ccccc1)C(=O)Nc1c2c(nn1-c1cccc(Cl)c1)CS(=O)(=O)C2 (centres unmarked),11.1%
20,CCc1ccc(-c2ncnn2-c2cccc(Cl)c2C)cc1,-1.82%
21,COc1ccc(-n2nnc(-c3nc(-c4ccc(Cl)cc4)no3)c2N)cc1OC,0.0603%
22,C=Cc1ccc(Cn2c(C)c(CNCc3ccccc3F)c(C(=O)O)c2C)cc1,-0.23%
23,CCC[C@H](NC(=O)C1(NC(=O)c2ccc(-c3csc(N4CCN(C)CC4)n3)cc2)CCCCC1)C(=O)c1nc2ccccc2o1,-6.46%
24,CC(C)c1ccccc1OCCN1CCNCC1,-4.35%
25,Cc1ccc(S(=O)(=O)c2nnn3c2nc(NC2CC2)c2cc(Cl)ccc23)cc1C,0.291%
26,CCOc1ccc(N2C(=O)CC(N3CCC(N4CCCCC4)CC3)C2=O)cc1 (centres unmarked),-2.89%

row,SMILES,% Inhibition @ 10 uM
1,Cc1ccc(CNC(=O)Cn2nc(C)n3c(cc4occc43)c2=O)cc1,-3.79%
2,CCN(CC)CCCCSc1ccc(O)cc1,-1.41%
3,O=C(CSCc1cnn(-c2ccccc2)c1-n1cccc1)NCCC1=CCCCC1,9.77%
4,OC(Cc1ccccc1)(Cc1ccccc1)C1CN2CCC1CC2 (centres unmarked),4.01%
5,O=C(Cn1ncn2cccc2c1=O)N1CCN(Cc2ccc3c(c2)OCO3)CC1,-9.13%
6,O=C(O)/C=C/c1cccc(NS(=O)(=O)c2ccc(O)c(C(=O)O)c2)c1,3.06%
7,COc1ccccc1NC(=O)c1ccccc1NC(=O)c1ccc(C)cc1,9.65%
8,O=C(CSc1nc(O)c2c3c(sc2n1)CCCC3)N(CCO)CCO,-1.08%
9,Fc1ccccc1N1CCN(C2C3CC4CC(C3)CC2C4)CC1 (centres unmarked),1.57%
10,CCOc1ccc(C2(C)CC(=O)NC2=O)cc1 (centres unmarked),-2.55%
11,N=C(NOC(=O)C1CCCCC1)c1ccccc1,3.59%
12,CC1(O)c2ccccc2C(=O)N1Cc1ccccc1 (centres unmarked),-0.467%
13,CC1=C(C(=O)OC2CCCC2)C(c2ccc(Br)cc2)CC(=O)N1 (centres unmarked),4.78%
14,O=C(Nc1ccc(S(=O)(=O)N2CCc3ccccc32)cc1)C(F)(F)F,1.37%
15,CCSC1=C(C#N)C(=O)NC(c2ccc(OC)cc2OC)S1 (centres unmarked),4.93%
16,N#CCNC(=O)[C@H](Cc1c(F)cccc1F)NC(=O)c1ccc(-c2ccccc2Cl)cc1,-3.48%
17,Cc1cccc(CNCC2CCCO2)c1 (centres unmarked),-3.16%
18,Cc1cccc(-n2ncc3c(N4CCN(Cc5ccccc5)CC4)ncnc32)c1,2.56%
19,CCOc1ccc(CCNC(=O)COCc2cc(-c3cccs3)on2)cc1,-1.58%
20,N#CCNC(=O)[C@@H](CC(=O)N1CCOCC1)CC1CCCCC1,-1.83%
21,CN(CC(=O)Nc1cccc(Cl)c1)S(=O)(=O)c1ccc(F)cc1,-10.4%
22,Cc1ccc(N2C(=O)NC(=O)/C(=C/Nc3cccc(C(=O)O)c3)C2=O)cc1,4.32%
23,CCn1cc(CNC(=O)c2cc(-c3cc(OC)ccc3OC)nc3ccccc23)c(C)n1,3.94%
24,COc1ccc(C2C(C#N)=C(N)OC3=C2C(=O)CC(c2ccccc2)C3)cc1OC (centres unmarked),5.58%
25,Cc1cc(NCc2ccco2)nc2cc(O)ccc12,5.53%
26,COc1ccc2c(c1)C(C)=CC(C)(C)N2C(=O)CN1C(=O)CCC1=O,4.74%

row,SMILES,% Inhibition @ 10 uM
1,C=CCNC(=O)/C(=C/c1ccc(C(C)C)cc1)NC(=O)c1ccccc1,3.66%
2,Cc1cccc(NC(=O)COc2cc(Cl)ccc2Cl)c1,-14.3%
3,N#CC1=C(N)Oc2c(oc(CO)cc2=O)C1c1ccc(Oc2ccccc2)c(F)c1 (centres unmarked),1.76%
4,CCc1nn2cc(-c3ccccc3)nc2s1,6.05%
5,O=C(Nc1ccc(Oc2ccc(NC(=O)c3cnccn3)cc2)cc1)c1cnccn1,0.722%
6,Cc1ccccc1-c1noc(-c2nnn(-c3ccccc3C(F)(F)F)c2N)n1,2.71%
7,CN(C)CCCN(CCCN(C)C)Cc1ccc(C(F)(F)F)cc1,-0.0494%
8,COCC(=O)Nc1nc2nc(C)cc(C)n2n1,-1.31%
9,Cc1nn(-c2ccccc2)c(Cl)c1C1C(C#N)=C(N)Oc2c1c(=O)oc1ccccc21 (centres unmarked),13.5%
10,O=C1NC(=O)/C(=C\c2ccc(N3CCOCC3)cc2)S1,-0.999%
11,Cc1cc(NC(=O)CSc2nc3nccnc3c(=O)n2CCc2c[nH]c3ccccc23)[nH]n1,1.1%
12,CCCCSC1=C(C#N)C(=O)NC(CO)S1 (centres unmarked),3.35%
13,CCCCN(C)C(=O)Cn1cc2c(n1)-c1c(oc(C(=O)N3CCCC3)c1C)CC2,-1.38%
14,C=Cc1ccc(CSc2nnc(C)n3c2cc2sccc23)cc1,-1.09%
15,CCOc1ccc(N2CC(C(N)=O)CC2=O)cc1 (centres unmarked),7.2%
16,O=[N+]([O-])c1cc(-c2n[nH]c(O)c2C2=NCCC2)c(Cl)cc1Cl,4.9%
17,Cc1ccc(N2C(=O)c3ccccc3NC2c2cccc(O)c2)cc1 (centres unmarked),-7.02%
18,COc1ccc(-c2cc(C3CC3)nc3sc(C(=O)O)c(N)c23)cc1,33.3%
19,Cn1cnc2c(N3CCCCC3)nccc21,-2.44%
20,OCC1CCCN(Cc2cccc(Cl)c2Cl)C1 (centres unmarked),-1.72%
21,Nc1nc(-c2ccccc2O)cs1,-3.53%
22,CC(Sc1nc(N)cc(N)n1)C(=O)Nc1ccccc1 (centres unmarked),-5.26%
23,CC1=C(C#N)C(C(F)(F)F)(C(F)(F)F)NC(CCc2ccccc2)=N1,5.12%
24,Cc1c(Cc2c(C)n(CCO)c(=O)n(C)c2=O)c(=O)n(C)c(=O)n1CCO,-1.96%
25,COc1ccc(C2C(C#N)=C(N)Oc3c2c(C)nn3-c2ccc(Br)cc2)cc1 (centres unmarked),-6.86%
26,COc1cccc(C(=O)Nc2ccccc2C(F)(F)F)c1,-2.22%

row,SMILES,% Inhibition @ 10 uM
1,CN1CCN(C(=O)NCC23CC4CC(CC(C4)C2)C3)CC1,-1.81%
2,CCc1ccc(/C=c2\sc3nc(-c4ccccc4)nn3c2=O)cc1,0.222%
3,O=C(Cc1noc2ccccc12)NCCc1ccc(Cl)cc1,3.44%
4,Cc1cc(O)nc(SCC(=O)Nc2cccc(C(F)(F)F)c2)n1,-2.83%
5,CC(=O)N1c2ccccc2C2OCCC2C1c1ccco1 (centres unmarked),17.4%
6,CCOc1ccccc1N1CCN(S(=O)(=O)c2cc(Cl)ccc2Cl)CC1,-5.14%
7,O=C1/C(=C\Nc2ccccc2)c2ccccc2C(=O)N1c1ccccc1,-4.06%
8,COc1ccc(Br)c(C(=O)Nc2c(C)nc3ncnn3c2O)c1,1.43%
9,CCOc1ccccc1C1CC(=O)NC(C)=C1C(=O)OCC(C)C (centres unmarked),-0.396%
10,COC(=O)c1ccc(OCC(O)Cn2c[n+](C)c3cc(C)c(C)cc32)cc1 (centres unmarked),3.47%
11,COC(=O)c1cc2occc2n1CC(=O)N(C)C1CCCCC1,-2.18%
12,Sc1nnc(-c2ccncc2)n1Cc1ccco1,0.238%
13,COC(=O)CSc1nc(-c2ccc(Br)cc2)cc(-c2cccs2)c1C#N,1.42%
14,CCOc1cccc2cc(-c3csc(NC(=O)CCC(=O)O)n3)c(=O)oc12,-0.326%
15,N=C1/C(=C\c2coc3ccccc3c2=O)C(=O)N=C2SC(c3ccccc3F)=NN12,-5.76%
16,Cc1ccc(CNC(=O)c2ccc(CS(=O)(=O)Cc3ccccc3C)o2)cc1,-2.01%
17,CCOC(=O)C1=C(C)N=c2s/c(=C\c3ccccc3)c(=O)n2C1c1ccc(C)cc1 (centres unmarked),-3.44%
18,CC1=C(C(=O)Nc2ccccc2C)C(c2ccc(Cl)cc2)n2nc(CCCO)nc2N1 (centres unmarked),-4.33%
19,CCOc1ccccc1N1CCN(Cc2[nH]cnc2C)CC1,0.0792%
20,Cc1nc2c(C(=O)NCc3ccccc3Cl)cnn2c(O)c1Cc1ccccc1F,16.3%
21,Cc1cc(=O)n(CC(=O)NCCc2ccccc2)c2c1c(C)nn2-c1cccc(F)c1,4.81%
22,CCCC(=O)NC(C)c1nc2ccccc2n1Cc1ccc(C)cc1 (centres unmarked),-2.28%
23,Cc1c(CC(=O)N2CCCCC2)c(=O)oc2cc(O)c(Cl)cc12,0.895%
